# Measured values taken from the supplement of paper PMC8728848.
# This is one part of the list.
# B1: DC-ASGPR-short (Homo sapiens) (protein)
# chain: MTRTYENFQYLENKVKVQGFKNGPLPLQSLLQRLRSGPCHLLLSLGLGLLLLVIICVVGFQNSKFQRDLVTLRTDFSNFTSNTVAEIQALTSQGSSLEETIASLKAEVEGFKQERQAVHSEMLLRVQQLVQDLKKLTCQVATLNNNASTEGTCCPVNWVEHQDSCYWFSHSGMSWAEAEKYCQLKNAHLVVINSREEQNFVQKYLGSAYTWMGLSDPEGAWKWVDGTDYATGFQNWKPGQPDDWQGHGLGGGEDCAHFHPDGRWNDDVCQRPYHWVCEAGLGQTSQESH
# What was measured:
# Assay in all cases: glycan array binding signal (z-score within array); higher = stronger binding
# Conditions in all cases: glycan notation: IUPAC condensed, linker removed
# [1] = biological target: Neu5Ac(a2-3)Gal(b1-4)GlcNAc(b1-3)[Neu5Ac(a2-3)Gal(b1-4)GlcNAc(b1-6)]GalNAc
# Outline: (§1)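 The Consortium for Functional Glycomics database supplied 3228 glycan arrays, of which those lacking an available protein sequence were dropped. The binding signal, a within-array Z-score, was averaged across arrays of the same protein sequence and across linkers. Negative scores can be read as non-binding.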
# [2] = biological target: Neu5Ac(a2-3)Gal(b1-4)GlcNAc(b1-6)GalNAc
# Outline: as §1
# [3] = biological target: Neu5Ac(a2-3)Gal(b1-4)GlcNAc(b1-6)[Gal(b1-3)]GalNAc
# Outline: as §1
# [4] = biological target: Neu5Ac(a2-3)Gal(b1-4)GlcNAc(b1-6)[Neu5Ac(a2-3)Gal(b1-3)]GalNAc
# Outline: as §1
# [5] = biological target: Neu5Ac(a2-3)Gal(b1-4)GlcNAc6S
# Outline: as §1
# [6] = biological target: Neu5Ac(a2-3)Gal(b1-4)[Fuc(a1-3)]GlcNAc
# Outline: as §1
# [7] = biological target: Neu5Ac(a2-3)Gal(b1-4)[Fuc(a1-3)]GlcNAc(b1-2)Man
# Outline: as §1
# [8] = biological target: Neu5Ac(a2-3)Gal(b1-4)[Fuc(a1-3)]GlcNAc(b1-3)Gal
# Outline: as §1
# [9] = biological target: Neu5Ac(a2-3)Gal(b1-4)[Fuc(a1-3)]GlcNAc(b1-3)Gal(b1-4)GlcNAc
# Outline: as §1
# [10] = biological target: Neu5Ac(a2-3)Gal(b1-4)[Fuc(a1-3)]GlcNAc(b1-3)Gal(b1-4)[Fuc(a1-3)]GlcNAc(b1-3)Gal(b1-4)[Fuc(a1-3)]GlcNAc
# Outline: as §1
# [11] = biological target: Neu5Ac(a2-3)Gal(b1-4)[Fuc(a1-3)]GlcNAc(b1-3)GalNAc
# Outline: as §1
# [12] = biological target: Neu5Ac(a2-3)Gal(b1-4)[Fuc(a1-3)]GlcNAc(b1-6)[Gal(b1-3)]GalNAc
# Outline: as §1
# [13] = biological target: Neu5Ac(a2-3)Gal(b1-4)[Fuc(a1-3)]GlcNAc(b1-6)[Neu5Ac(a2-3)Gal(b1-3)]GalNAc
# Outline: as §1
# [14] = biological target: Neu5Ac(a2-3)Gal(b1-4)[Fuc(a1-3)]GlcNAc6S
# Outline: as §1
# [15] = biological target: Neu5Ac(a2-3)Gal6S(b1-4)GlcNAc
# Outline: as §1
# [16] = biological target: Neu5Ac(a2-3)Gal6S(b1-4)[Fuc(a1-3)]GlcNAc
# Outline: as §1
# Neu5Ac(a2-3)GalNAc = biological target: Neu5Ac(a2-3)GalNAc
# Outline: as §1
# [17] = biological target: Neu5Ac(a2-3)GalNAc(b1-4)GlcNAc
# Outline: as §1
# [18] = biological target: Neu5Ac(a2-3)[GalNAc(b1-4)]Gal(b1-4)Glc
# Outline: as §1
# [19] = biological target: Neu5Ac(a2-3)[GalNAc(b1-4)]Gal(b1-4)GlcNAc
# Outline: as §1
# [20] = biological target: Neu5Ac(a2-3)[GalNAc(b1-4)]Gal(b1-4)GlcNAc(b1-3)GalNAc
# Outline: as §1
# [21] = biological target: Neu5Ac(a2-3)[Neu5Ac(a2-6)]GalNAc
# Outline: as §1
# Neu5Ac(a2-6)Gal = biological target: Neu5Ac(a2-6)Gal
# Outline: as §1
# [22] = biological target: Neu5Ac(a2-6)Gal(b1-3)GlcNAc(b1-3)[Gal(b1-4)GlcNAc(b1-6)]Gal(b1-4)Glc
# Outline: as §1
# Neu5Ac(a2-6)Gal(b1-4)Glc = biological target: Neu5Ac(a2-6)Gal(b1-4)Glc
# Outline: as §1
# [23] = biological target: Neu5Ac(a2-6)Gal(b1-4)GlcNAc
# Outline: as §1
# [24] = biological target: Neu5Ac(a2-6)Gal(b1-4)GlcNAc(b1-2)Man
# Outline: as §1
# [25] = biological target: Neu5Ac(a2-6)Gal(b1-4)GlcNAc(b1-2)Man(a1-3)Man(b1-4)GlcNAc(b1-4)GlcNAc
# Outline: as §1
# [26] = biological target: Neu5Ac(a2-6)Gal(b1-4)GlcNAc(b1-2)Man(a1-3)[Gal(b1-4)GlcNAc(b1-2)Man(a1-6)]Man(b1-4)GlcNAc(b1-4)GlcNAc
# Outline: as §1
# [27] = biological target: Neu5Ac(a2-6)Gal(b1-4)GlcNAc(b1-2)Man(a1-3)[GlcNAc(b1-2)Man(a1-6)]Man(b1-4)GlcNAc(b1-4)GlcNAc
# Outline: as §1
# [28] = biological target: Neu5Ac(a2-6)Gal(b1-4)GlcNAc(b1-2)Man(a1-3)[GlcNAc(b1-4)][Neu5Ac(a2-6)Gal(b1-4)GlcNAc(b1-2)Man(a1-6)]Man(b1-4)GlcNAc(b1-4)GlcNAc
# Outline: as §1
# [29] = biological target: Neu5Ac(a2-6)Gal(b1-4)GlcNAc(b1-2)Man(a1-3)[Man(a1-6)]Man(b1-4)GlcNAc(b1-4)GlcNAc
# Outline: as §1
# [30] = biological target: Neu5Ac(a2-6)Gal(b1-4)GlcNAc(b1-2)Man(a1-3)[Neu5Ac(a2-3)Gal(b1-4)GlcNAc(b1-2)Man(a1-6)]Man(b1-4)GlcNAc(b1-4)GlcNAc
# Outline: as §1
# [31] = biological target: Neu5Ac(a2-6)Gal(b1-4)GlcNAc(b1-2)Man(a1-3)[Neu5Ac(a2-6)Gal(b1-4)GlcNAc(b1-2)Man(a1-6)]Man(b1-4)GlcNAc(b1-4)GlcNAc
# Outline: as §1
# [32] = biological target: Neu5Ac(a2-6)Gal(b1-4)GlcNAc(b1-2)Man(a1-3)[Neu5Ac(a2-6)Gal(b1-4)GlcNAc(b1-2)Man(a1-6)]Man(b1-4)GlcNAc(b1-4)[Fuc(a1-6)]GlcNAc
# Outline: as §1
# [33] = biological target: Neu5Ac(a2-6)Gal(b1-4)GlcNAc(b1-2)Man(a1-6)Man(b1-4)GlcNAc(b1-4)GlcNAc
# Outline: as §1
# [34] = biological target: Neu5Ac(a2-6)Gal(b1-4)GlcNAc(b1-2)Man(a1-6)[Gal(b1-4)GlcNAc(b1-2)Man(a1-3)]Man(b1-4)GlcNAc(b1-4)GlcNAc
# Outline: as §1
# [35] = biological target: Neu5Ac(a2-6)Gal(b1-4)GlcNAc(b1-2)Man(a1-6)[GlcNAc(b1-2)Man(a1-3)]Man(b1-4)GlcNAc(b1-4)GlcNAc
# Outline: as §1
# [36] = biological target: Neu5Ac(a2-6)Gal(b1-4)GlcNAc(b1-2)Man(a1-6)[Man(a1-3)]Man(b1-4)GlcNAc(b1-4)GlcNAc
# Outline: as §1
# [37] = biological target: Neu5Ac(a2-6)Gal(b1-4)GlcNAc(b1-2)[Neu5Ac(a2-6)Gal(b1-4)GlcNAc(b1-4)]Man(a1-3)[GlcNAc(b1-4)][Neu5Ac(a2-6)Gal(b1-4)GlcNAc(b1-2)[Neu5Ac(a2-6)Gal(b1-4)GlcNAc(b1-6)]Man(a1-6)]Man(b1-4)GlcNAc(b1-4)GlcNAc
# Outline: as §1
# [38] = biological target: Neu5Ac(a2-6)Gal(b1-4)GlcNAc(b1-2)[Neu5Ac(a2-6)Gal(b1-4)GlcNAc(b1-4)]Man(a1-3)[GlcNAc(b1-4)][Neu5Ac(a2-6)Gal(b1-4)GlcNAc(b1-4)Man(a1-6)]Man(b1-4)GlcNAc(b1-4)GlcNAc
# Outline: as §1
# [39] = biological target: Neu5Ac(a2-6)Gal(b1-4)GlcNAc(b1-2)[Neu5Ac(a2-6)Gal(b1-4)GlcNAc(b1-6)]Man(a1-6)[Neu5Ac(a2-6)Gal(b1-4)GlcNAc(b1-2)Man(a1-3)][GlcNAc(b1-4)]Man(b1-4)GlcNAc(b1-4)GlcNAc
# Outline: as §1
# [40] = biological target: Neu5Ac(a2-6)Gal(b1-4)GlcNAc(b1-3)Gal(b1-3)GlcNAc
# Outline: as §1
# [41] = biological target: Neu5Ac(a2-6)Gal(b1-4)GlcNAc(b1-3)Gal(b1-4)GlcNAc
# Outline: as §1
# [42] = biological target: Neu5Ac(a2-6)Gal(b1-4)GlcNAc(b1-3)Gal(b1-4)GlcNAc(b1-2)Man(a1-3)[Neu5Ac(a2-6)Gal(b1-4)GlcNAc(b1-3)Gal(b1-4)GlcNAc(b1-2)Man(a1-6)]GalNAc
# Outline: as §1
# [43] = biological target: Neu5Ac(a2-6)Gal(b1-4)GlcNAc(b1-3)Gal(b1-4)GlcNAc(b1-3)Gal(b1-4)GlcNAc
# Outline: as §1
binder,measurement,setting,value
B1,glycan array binding signal (z-score),[1],-0.367
same,glycan array binding signal (z-score),[2],2.62
same,glycan array binding signal (z-score),[3],-0.283
same,glycan array binding signal (z-score),[4],-0.286
same,glycan array binding signal (z-score),[5],-0.283
same,glycan array binding signal (z-score),[6],-0.281
same,glycan array binding signal (z-score),[7],-0.238
same,glycan array binding signal (z-score),[8],-0.276
same,glycan array binding signal (z-score),[9],-0.253
same,glycan array binding signal (z-score),[10],-0.242
same,glycan array binding signal (z-score),[11],-0.07
same,glycan array binding signal (z-score),[12],-0.285
same,glycan array binding signal (z-score),[13],-0.248
same,glycan array binding signal (z-score),[14],-0.286
same,glycan array binding signal (z-score),[15],-0.27
same,glycan array binding signal (z-score),[16],-0.279
same,glycan array binding signal (z-score),Neu5Ac(a2-3)GalNAc,-0.155
same,glycan array binding signal (z-score),[17],-0.279
same,glycan array binding signal (z-score),[18],0.286
same,glycan array binding signal (z-score),[19],0.316
same,glycan array binding signal (z-score),[20],0.702
same,glycan array binding signal (z-score),[21],-0.223
same,glycan array binding signal (z-score),Neu5Ac(a2-6)Gal,-0.275
same,glycan array binding signal (z-score),[22],-0.271
same,glycan array binding signal (z-score),Neu5Ac(a2-6)Gal(b1-4)Glc,-0.194
same,glycan array binding signal (z-score),[23],-0.283
same,glycan array binding signal (z-score),[24],-0.283
same,glycan array binding signal (z-score),[25],-0.284
same,glycan array binding signal (z-score),[26],-0.274
same,glycan array binding signal (z-score),[27],-0.242
same,glycan array binding signal (z-score),[28],-0.279
same,glycan array binding signal (z-score),[29],-0.279
same,glycan array binding signal (z-score),[30],-0.282
same,glycan array binding signal (z-score),[31],-0.184
same,glycan array binding signal (z-score),[32],-0.291
same,glycan array binding signal (z-score),[33],-0.274
same,glycan array binding signal (z-score),[34],-0.287
same,glycan array binding signal (z-score),[35],-0.284
same,glycan array binding signal (z-score),[36],-0.288
same,glycan array binding signal (z-score),[37],-1.26
same,glycan array binding signal (z-score),[38],-0.34
same,glycan array binding signal (z-score),[39],-0.272
same,glycan array binding signal (z-score),[40],-0.281
same,glycan array binding signal (z-score),[41],-0.293
same,glycan array binding signal (z-score),[42],-0.001
same,glycan array binding signal (z-score),[43],-0.273
